This is one part of the list.
Experiments:
Experiment in all cases: glycan array binding signal (z-score within array); higher = stronger binding
Details in all cases: glycan notation: IUPAC condensed, linker removed
Fuc(a1-2)Gal = target: Fuc(a1-2)Gal
Outline: (§1)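 The binding signal is a Z-score computed within each array. Data were drawn from 3228 arrays in the Consortium for Functional Glycomics database, restricted to those with a known protein sequence. Scores were averaged over arrays of the same protein sequence at different concentrations or buffers, and over linkers, and negative values can be taken as non-binding.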

Fuc(a1-2)Gal(b1-3)GalNAc = target: Fuc(a1-2)Gal(b1-3)GalNAc
Outline: as §1

[1] = target: Fuc(a1-2)Gal(b1-3)GalNAc(a1-3)[Fuc(a1-2)]Gal(b1-4)Glc
Outline: as §1

[2] = target: Fuc(a1-2)Gal(b1-3)GalNAc(a1-3)[Fuc(a1-2)]Gal(b1-4)GlcNAc
Outline: as §1

[3] = target: Fuc(a1-2)Gal(b1-3)GalNAc(b1-3)Gal
Outline: as §1

[4] = target: Fuc(a1-2)Gal(b1-3)GalNAc(b1-3)Gal(a1-4)Gal(b1-4)Glc
Outline: as §1

[5] = target: Fuc(a1-2)Gal(b1-3)GalNAc(b1-4)[Neu5Ac(a2-3)]Gal(b1-4)Glc
Outline: as §1

Fuc(a1-2)Gal(b1-3)GlcNAc = target: Fuc(a1-2)Gal(b1-3)GlcNAc
Outline: as §1

[6] = target: Fuc(a1-2)Gal(b1-3)GlcNAc(b1-2)Man(a1-3)[Fuc(a1-2)Gal(b1-3)GlcNAc(b1-2)Man(a1-6)]Man(b1-4)GlcNAc(b1-4)GlcNAc
Outline: as §1

[7] = target: Fuc(a1-2)Gal(b1-3)GlcNAc(b1-2)Man(a1-3)[Fuc(a1-2)Gal(b1-3)GlcNAc(b1-2)Man(a1-6)]Man(b1-4)GlcNAc(b1-4)[Fuc(a1-6)]GlcNAc
Outline: as §1

[8] = target: Fuc(a1-2)Gal(b1-3)GlcNAc(b1-3)Gal(b1-4)Glc
Outline: as §1

[9] = target: Fuc(a1-2)Gal(b1-3)GlcNAc(b1-3)GalNAc
Outline: as §1

[10] = target: Fuc(a1-2)Gal(b1-3)GlcNAc(b1-3)[Fuc(a1-2)Gal(b1-3)GlcNAc(b1-6)]GalNAc
Outline: as §1

[11] = target: Fuc(a1-2)Gal(b1-3)GlcNAc(b1-3)[Gal(b1-4)GlcNAc(b1-6)]Gal(b1-4)Glc
Outline: as §1

[12] = target: Fuc(a1-2)Gal(b1-3)GlcNAc(b1-3)[Neu5Ac(a2-6)Gal(b1-4)GlcNAc(b1-6)]Gal(b1-4)Glc
Outline: as §1

[13] = target: Fuc(a1-2)Gal(b1-3)GlcNAc6S
Outline: as §1

[14] = target: Fuc(a1-2)Gal(b1-3)[Fuc(a1-4)]GlcNAc
Outline: as §1

[15] = target: Fuc(a1-2)Gal(b1-3)[Fuc(a1-4)]GlcNAc(b1-2)Man(a1-3)[Fuc(a1-2)Gal(b1-3)[Fuc(a1-4)]GlcNAc(b1-2)Man(a1-3)]Man(b1-4)GlcNAc(b1-4)GlcNAc
Outline: as §1

[16] = target: Fuc(a1-2)Gal(b1-3)[Fuc(a1-4)]GlcNAc(b1-2)Man(a1-3)[Fuc(a1-2)Gal(b1-3)[Fuc(a1-4)]GlcNAc(b1-2)Man(a1-6)]Man(b1-4)GlcNAc(b1-4)[Fuc(a1-6)]GlcNAc(b1-4)[Fuc(a1-6)]GlcNAc
Outline: as §1

[17] = target: Fuc(a1-2)Gal(b1-3)[Fuc(a1-4)]GlcNAc(b1-3)[Fuc(a1-3)[Gal(b1-4)]GlcNAc(b1-6)]Gal(b1-4)Glc
Outline: as §1

[18] = target: Fuc(a1-2)Gal(b1-3)[Fuc(a1-4)]GlcNAc(b1-3)[Gal(b1-4)GlcNAc(b1-6)]Gal(b1-4)Glc
Outline: as §1

[19] = target: Fuc(a1-2)Gal(b1-4)Fuc(a1-3)]GlcNAc(b1-2)Man(a1-3)[Fuc(a1-2)Gal(b1-4)[Fuc(a1-3)]GlcNAc(b1-2)Man(a1-6)]Man(b1-4)GlcNAc(b1-4)GlcNAc
Outline: as §1

Fuc(a1-2)Gal(b1-4)Glc = target: Fuc(a1-2)Gal(b1-4)Glc
Outline: as §1

Fuc(a1-2)Gal(b1-4)Glc6S = target: Fuc(a1-2)Gal(b1-4)Glc6S
Outline: as §1

Fuc(a1-2)Gal(b1-4)GlcNAc = target: Fuc(a1-2)Gal(b1-4)GlcNAc
Outline: as §1

[20] = target: Fuc(a1-2)Gal(b1-4)GlcNAc(b1-2)Man
Outline: as §1

[21] = target: Fuc(a1-2)Gal(b1-4)GlcNAc(b1-2)Man(a1-3)[Fuc(a1-2)Gal(b1-4)GlcNAc(b1-2)Man(a1-6)]Man(b1-4)GlcNAc(b1-4)GlcNAc
Outline: as §1

[22] = target: Fuc(a1-2)Gal(b1-4)GlcNAc(b1-2)Man(a1-3)[Fuc(a1-2)Gal(b1-4)GlcNAc(b1-2)Man(a1-6)]Man(b1-4)GlcNAc(b1-4)[Fuc(a1-6)]GlcNAc
Outline: as §1

[23] = target: Fuc(a1-2)Gal(b1-4)GlcNAc(b1-2)[Fuc(a1-2)Gal(b1-4)GlcNAc(b1-4)]Man(a1-3)[Fuc(a1-2)Gal(b1-4)GlcNAc(b1-2)Man(a1-6)]Man(b1-4)GlcNAc(b1-4)GlcNAc
Outline: as §1

[24] = target: Fuc(a1-2)Gal(b1-4)GlcNAc(b1-3)Gal(b1-4)GlcNAc
Outline: as §1

B1: NKR-PIC (Mus musculus) (protein)
chain: GTGQKPSREKCCVFIQENLNKTTDCSVNLECPQDWLLHRDKCFHVSQVSNTWEEGQADCGRKGATLLLIQDQEELRFLLDSIKEKYNSFWIGLRFTLPDMNWKWINGTTFNSDVLKITGVTENGSCASILGDKVTPESCASDNRWICQKELNHETPSNDSGT
Fuc(a1-2)Gal
  glycan array binding signal (z-score): -0.371
Fuc(a1-2)Gal(b1-3)GalNAc
  glycan array binding signal (z-score): -0.288
[1]
  glycan array binding signal (z-score): -0.357
[2]
  glycan array binding signal (z-score): -0.235
[3]
  glycan array binding signal (z-score): -0.268
[4]
  glycan array binding signal (z-score): -0.41
[5]
  glycan array binding signal (z-score): -0.278
Fuc(a1-2)Gal(b1-3)GlcNAc
  glycan array binding signal (z-score): -0.281
[6]
  glycan array binding signal (z-score): -0.138
[7]
  glycan array binding signal (z-score): -0.343
[8]
  glycan array binding signal (z-score): -0.342
[9]
  glycan array binding signal (z-score): -0.371
[10]
  glycan array binding signal (z-score): -0.237
[11]
  glycan array binding signal (z-score): -0.319
[12]
  glycan array binding signal (z-score): -0.362
[13]
  glycan array binding signal (z-score): -0.411
[14]
  glycan array binding signal (z-score): -0.358
[15]
  glycan array binding signal (z-score): -0.307
[16]
  glycan array binding signal (z-score): -0.31
[17]
  glycan array binding signal (z-score): -0.309
[18]
  glycan array binding signal (z-score): -0.363
[19]
  glycan array binding signal (z-score): -0.301
Fuc(a1-2)Gal(b1-4)Glc
  glycan array binding signal (z-score): -0.376
Fuc(a1-2)Gal(b1-4)Glc6S
  glycan array binding signal (z-score): -0.344
Fuc(a1-2)Gal(b1-4)GlcNAc
  glycan array binding signal (z-score): -0.25
[20]
  glycan array binding signal (z-score): -0.316
[21]
  glycan array binding signal (z-score): -0.242
[22]
  glycan array binding signal (z-score): -0.165
[23]
  glycan array binding signal (z-score): -0.284
[24]
  glycan array binding signal (z-score): -0.254
